# According to PMC3199943, “Screening the MayBridge Rule of 3 Fragment Library for Compounds That Interact with the Trypanosoma brucei myo-Inositol-3-Phosphate Synthase and/or Show Trypanocidal Activity” (Molecular Biology International, 2011):
# Like-named read-outs stand apart in the source and are kept apart here.
# What was measured:
# [1] = tested on: cultured bloodstream T. brucei (strain 427); settings: for T. brucei Alamar Blue: Supplementary Table 1, compound 0.5 mM, percentage of controls in the absence of compound, mean ± SD (n=3) or SE (n=2)
# [2] = tested on: cultured bloodstream T. brucei (strain 427); experiment: microbe, parasite or virus in culture; settings: Trypanosoma brucei; for viability at 500 µM: read-out: T. brucei Alamar Blue
# [3] = T. brucei ED50 versus HeLa ED50
# [4] = read-out: T. brucei ED50, ED50 ± SD (n = 4)
SMILES,T. brucei Alamar Blue [1],also measured
"Nc1ccccc1O [269e, 2-amino-phenol]",,Selectivity index [1]: 3.4; IC50 ([2]; read-out: T. brucei ED50): 20 ± 0.3 µM
"Nc1ccc(-c2ccco2)cc1 [compound 257, 4‐(2‐furyl)aniline]",,"Selectivity index [1, 3]: 2.0; viability at 500 µM [2]: 29.3 ± 8.5%; IC50 [2, 4]: 56 ± 3.6 µM"
"O=C(O)C1CC2CC1CCC2O (stereo not shown) [compound 345, 2‐hydroxybicyclo[3.2.1]octane‐6‐carboxylic acid]",81.9 ± 2.6 percentage of controls,
"CNCc1cc(-c2ccccc2)nn1C [compound 631, N‐methyl‐N‐[(1‐methyl‐3‐phenyl‐1H‐pyrazol‐5‐yl)methyl]amine]",31 ± 6.5 percentage of controls,
"CC(=O)c1cc2cc(Cl)ccc2o1 [compound 589, 1‐(5‐chlorobenzo[b]furan‐2‐yl)ethan‐1‐one]",81.4 ± 11.7 percentage of controls,
"CC(=O)Oc1ccc(C)c2c1CCC2 [compound 541, 7‐methyl‐2,3‐dihydro‐1H‐inden‐4‐yl acetate]",45.5 ± 23.2 percentage of controls,
"CNCc1c(-c2ccccc2)noc1C [compound 637, N‐methyl‐N‐[(5‐methyl‐3‐phenylisoxazol‐4‐yl)methyl]amine]",66.1 ± 6.7 percentage of controls,
"Cn1nc(-c2cccs2)cc1CO [compound 587, (1‐methyl‐3‐thien‐2‐yl‐1H‐pyrazol‐5‐yl)methanol]",61.3 ± 11.9 percentage of controls,
"CCOC(=O)c1[nH]c(C)c(CC)c1C [compound 594, ethyl 4‐ethyl‐3,5‐dimethyl‐1H‐pyrrole‐2‐carboxylate]",32.2 ± 12.3 percentage of controls,
"c1ccc(-c2cn3c(n2)SCC3)cc1 [compound 639, 6‐phenyl‐2,3‐dihydroimidazo[2,1‐b][1,3]thiazole]",31.1 ± 5.8 percentage of controls,
"Cc1nc2ccccn2c1CO [compound 287, (2‐methylimidazo[1,2‐a]pyridin‐3‐yl)methanol]",84.7 ± 18.1 percentage of controls,
"CC12CCC(CC1=NO)C2(C)C (stereo not shown) [compound 332, 1,7,7‐trimethylbicyclo[2.2.1]heptan‐2‐one oxime]",106.5 ± 18.9 percentage of controls,
"Nc1ccc2c(c1)CCCC2=O [compound 280, 6‐amino‐1,2,3,4‐tetrahydronaphthalen‐1‐one]",42.8 ± 6.8 percentage of controls,
"OCc1scc2c1OCCO2 [compound 361, 2,3‐dihydrothieno[3,4‐b][1,4]dioxin‐5‐ylmethanol]",86.3 ± 8.1 percentage of controls,
"Nc1ccc(C(F)(F)F)cc1 [compound 270, 4‐(trifluoromethyl)aniline]",,"Selectivity index [1, 3]: 6.8; viability at 500 µM [2]: 25.8 ± 6.6%; IC50 [2, 4]: < 40 µM"
"NCC1COc2ccccc2O1 (stereo not shown) [compound 309, 2,3‐dihydro‐1,4‐benzodioxin‐2‐ylmethylamine]",24.7 ± 6.9 percentage of controls,
"CCOC(=O)c1c(N)sc(C)c1C [compound 617, ethyl 2‐amino‐4,5‐dimethylthiophene‐3‐carboxylate]",100.4 ± 13.8 percentage of controls,
"CC12CC(=O)CC1(C)CC(=O)C2 (stereo not shown) [compound 324, 3a,6a‐dimethylperhydropentalene‐2,5‐dione]",88.2 ± 0.7 percentage of controls,
"Cc1nc(-c2ccccc2)c(CO)s1 [compound 666, (2‐methyl‐4‐phenyl‐1,3‐thiazol‐5‐yl)methanol]",85.9 ± 17.4 percentage of controls,
"OCc1cccc2c1OCCO2 [compound 322, 2,3‐dihydro‐1,4‐benzodioxin‐5‐ylmethanol]",90.8 ± 4.4 percentage of controls,

SMILES,T. brucei Alamar Blue [1],also measured
"COC(=O)c1cc2ccsc2[nH]1 [compound 463, methyl 6H‐thieno[2,3‐b]pyrrole‐5‐carboxylate]",85.3 ± 19.7 percentage of controls,
"OCc1cc(F)cc2c1OCOC2 [compound 476, (6‐fluoro‐4H‐1,3‐benzodioxin‐8‐yl)methanol]",33.3 ± 4.3 percentage of controls,
"CNCc1ccc2c(c1)OCO2 [compound 305, N‐(1,3‐benzodioxol‐5‐ylmethyl)‐N‐methylamine]",49.3 ± 11.2 percentage of controls,
"OCc1ccc2c(c1)OCCO2 [compound 320, 2,3‐dihydro‐1,4‐benzodioxin‐6‐ylmethanol]",83.1 ± 11.5 percentage of controls,
"CC1CCN(CC(C)(C)N)CC1 [compound 349, 2‐methyl‐1‐(4‐methylpiperidino)‐2‐propanamine]",103.1 ± 7.3 percentage of controls,
"O=C(O)c1cccc2c1OCC2 [compound 297, 2,3‐dihydrobenzo[b]furan‐7‐carboxylic acid]",101.8 ± 16 percentage of controls,
"Nc1ccccc1-c1cccnc1 [compound 348, 2‐pyridin‐3‐ylaniline]",,"Selectivity index [1, 3]: 0.6; viability at 500 µM [2]: 22.2 ± 5.6%; IC50 [2, 4]: < 40 µM"
"OCc1ccc(CN2CCCC2)cc1 [compound 559, [4‐(pyrrolidin‐1‐ylmethyl)phenyl]methanol]",82.9 ± 2.2 percentage of controls,
"NCc1csc(-c2cccs2)n1 [compound 599, [2‐(2‐thienyl)‐1,3‐thiazol‐4‐yl]methylamine]",35.2 ± 15.5 percentage of controls,
"CNCc1scc2c1OCCO2 [compound 495, N‐(2,3‐dihydrothieno[3,4‐b][1,4]dioxin‐5‐ylmethyl)‐N‐methylamine]",28.2 ± 3.2 percentage of controls,
"C#CCN1CCS(=O)(=O)CC1 [compound 379, 4‐(Prop‐2‐ynyl)thiomorpholine 1,1‐dioxide]",102.9 ± 14.9 percentage of controls,
"CC(=O)c1cc(F)cc(F)c1O [compound 360, 1‐(3,5‐difluoro‐2‐hydroxyphenyl)ethan‐1‐one]",98.4 ± 8.8 percentage of controls,
"Cc1cc(C(F)(F)F)c(C#N)cn1 [compound 498, 6‐methyl‐4‐(trifluoromethyl)nicotinonitrile]",102.8 ± 15.5 percentage of controls,
"Cn1nc(-c2cccs2)cc1N [compound 450, 1‐methyl‐3‐(2‐thienyl)‐1H‐pyrazol‐5‐amine]",55.3 ± 16.7 percentage of controls,
"OCC1CNc2ccccc2O1 (stereo not shown) [compound 307, 3,4‐dihydro‐2H‐1,4‐benzoxazin‐2‐ylmethanol]",76.9 ± 15.1 percentage of controls,
"NCc1cccc(CN2CCCC2)c1 [compound 550, [3‐(1‐pyrrolidinylmethyl)phenyl]methanamine]",51.6 ± 9 percentage of controls,
"Nc1ccc2c(c1)OCCCO2 [compound 308, 3,4‐dihydro‐2H‐1,5‐benzodioxepin‐7‐amine]",110.4 ± 16.6 percentage of controls,
"CSc1ccc(C(=O)O)s1 [compound 389, 5‐(methylthio)thiophene‐2‐carboxylic acid]",85.6 ± 16.6 percentage of controls,
"Nc1ccc(-n2cccc2)cc1 [compound 250, 4‐(1H‐pyrrol‐1‐yl)aniline]",,"Selectivity index [1, 3]: 17.1; viability at 500 µM [2]: 32.4 ± 12.8%; IC50 [2, 4]: 81 ± 5.1 µM"
"N#Cc1scc2c1OCCO2 [compound 327, 2,3‐dihydrothieno[3,4‐b][1,4]dioxine‐5‐carbonitrile]",89.7 ± 4.3 percentage of controls,
